The values that follow come from publication PMC4336329 (PLoS ONE, 2015).

About 14,000 (4.5%) of roughly 310,000 compounds showed an effect of 50% or more. Effects have a minus sign here. The list shows a part of the results.
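Also: peak tail current of the secondary pulse compared with the same well before compound.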

The target in the test is human ether-à-go-go-related gene (hERG) potassium channel (human, UniProt Q12809). Kind of test: primary screen, population patch clamp on CHO cells stably expressing hERG.
Sequence of human ether-à-go-go-related gene (hERG) potassium channel (Q12809 whole entry, looked up): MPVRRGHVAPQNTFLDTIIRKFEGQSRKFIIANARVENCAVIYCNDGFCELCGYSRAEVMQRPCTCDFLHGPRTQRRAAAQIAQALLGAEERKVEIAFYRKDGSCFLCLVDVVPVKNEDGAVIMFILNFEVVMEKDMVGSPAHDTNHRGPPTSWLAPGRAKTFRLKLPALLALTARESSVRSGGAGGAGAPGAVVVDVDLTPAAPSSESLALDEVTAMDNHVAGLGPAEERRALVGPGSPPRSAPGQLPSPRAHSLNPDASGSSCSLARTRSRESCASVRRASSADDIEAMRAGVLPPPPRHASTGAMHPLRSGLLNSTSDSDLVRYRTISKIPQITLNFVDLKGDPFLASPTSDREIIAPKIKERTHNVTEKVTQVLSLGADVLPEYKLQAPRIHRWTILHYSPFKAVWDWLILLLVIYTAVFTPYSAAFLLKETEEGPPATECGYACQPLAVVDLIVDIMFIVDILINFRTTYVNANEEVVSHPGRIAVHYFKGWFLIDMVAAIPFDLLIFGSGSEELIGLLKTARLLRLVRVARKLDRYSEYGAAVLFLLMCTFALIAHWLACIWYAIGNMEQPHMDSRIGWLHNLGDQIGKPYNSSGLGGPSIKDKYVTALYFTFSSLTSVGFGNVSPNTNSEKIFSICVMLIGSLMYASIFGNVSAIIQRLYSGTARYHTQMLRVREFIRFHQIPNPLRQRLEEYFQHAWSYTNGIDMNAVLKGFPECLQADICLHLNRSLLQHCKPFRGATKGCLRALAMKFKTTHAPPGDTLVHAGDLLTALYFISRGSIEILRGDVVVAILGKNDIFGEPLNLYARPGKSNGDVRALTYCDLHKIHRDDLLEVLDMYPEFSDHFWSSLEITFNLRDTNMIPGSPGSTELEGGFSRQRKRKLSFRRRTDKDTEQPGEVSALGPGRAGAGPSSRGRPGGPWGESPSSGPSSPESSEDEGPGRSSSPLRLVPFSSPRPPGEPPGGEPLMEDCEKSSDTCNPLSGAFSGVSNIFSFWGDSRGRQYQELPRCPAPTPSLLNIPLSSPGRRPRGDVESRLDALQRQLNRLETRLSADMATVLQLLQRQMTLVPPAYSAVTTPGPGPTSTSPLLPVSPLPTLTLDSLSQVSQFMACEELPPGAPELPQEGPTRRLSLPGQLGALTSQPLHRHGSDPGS
On to `O=C(NCCOC(=O)c1ccccc1)c1ccccc1`, for which the “hERG current change (%, negative = inhibition) at 10uM” value is 10.2%.
Under `CCOCCCNC(=O)C(NC(=O)c1ccc2c(c1)OCO2)c1ccc(Cl)cc1` (stereo not shown) stands -30.4%; under `CCNc1ccc(Br)cc(C(=O)/C=C/c2ccc(Cl)cc2)c1=O`, 1.68%; under `COc1ccccc1CNC(=O)C(=O)c1cn(CC(=O)N2CCCC2)c2ccccc12`, 15.1%.
Turning to `Cc1cc(NC(=O)CCSc2ccccc2)ccc1Br`, the “hERG current change (%, negative = inhibition) at 10uM” value came to 4.16%.
As for `Cc1ccc(NC(=O)C2CCN(C(=O)OC(C)(C)C)CC2)cc1S(=O)(=O)N1CCCCC1`, the “hERG current change (%, negative = inhibition) at 10uM” value is on record as -12.3%.
With `CCOC(=O)c1[nH]c(C)c(C(=O)N2CCC3(CC2)OCCO3)c1C`, the “hERG current change (%, negative = inhibition) at 10uM” value was determined as 15.1%.
As for `Cc1ccc(S(=O)(=O)N(C)CC(=O)NCCCc2ccccc2)cc1`, the “hERG current change (%, negative = inhibition) at 10uM” value is -22.2%.
Consider `O=C(O)CN1C(=O)NC2(CCCc3ccccc32)C1=O` (stereo not shown), for which the “hERG current change (%, negative = inhibition) at 10uM” value was determined as 19.3%.
As to `O=C(Nc1ccc2c(c1)C(=O)NC2=O)c1ccc2ncsc2c1`, the “hERG current change (%, negative = inhibition) at 10uM” value was 4.82%.
Turning to `Cc1ccc(C(=O)NCCn2cc(SCC(=O)N3CCOCC3)c3ccccc32)cc1`, the “hERG current change (%, negative = inhibition) at 10uM” value is listed as -2.69%.
Regarding `COc1ccc2cc(C#N)c(SCC(=O)N3CC(=O)Nc4ccccc43)nc2c1`, the “hERG current change (%, negative = inhibition) at 10uM” value came out at 14.9%.
As for `Cc1ccc(NC(=O)CCN2CCC(C(N)=O)CC2)cc1`, the “hERG current change (%, negative = inhibition) at 10uM” value was found to be 17.3%.
`COc1cccc(C(C)N(C)Cc2nc(COc3ccccc3)no2)c1` (stereo not shown): the “hERG current change (%, negative = inhibition) at 10uM” value is reported as -18.7%.
As to `Cc1cccc(C(=O)Nc2nnc(S(=O)(=O)N3CCOCC3)s2)c1`, the “hERG current change (%, negative = inhibition) at 10uM” value worked out at 11.2%.
Consider `COc1ccc(CNC(=O)CN(C)Cc2ccc(C(C)(C)C)cc2)cc1.O=C(O)C(=O)O`, for which the “hERG current change (%, negative = inhibition) at 10uM” value is -4.44%.
On to `COc1ccccc1NC(=O)Cn1ncc2c1-c1ccccc1OC2`, for which the “hERG current change (%, negative = inhibition) at 10uM” value is -5.92%.
For `O=C(Cn1c(C(F)(F)F)nc2ccccc21)OCC(=O)c1c[nH]c2ccccc12`, the “hERG current change (%, negative = inhibition) at 10uM” value stood at 11.2%.
For `Cn1nc(-c2ccccc2)cc1NS(=O)(=O)c1ccc(C#N)cc1`, the “hERG current change (%, negative = inhibition) at 10uM” value was determined as 11.4%.
As to `COc1ccccc1/C=C/C(=O)NCC(=O)N/N=C/c1cc(Br)ccc1OC`, the “hERG current change (%, negative = inhibition) at 10uM” value is -3.8%.
As for `OCC1(CCc2ccccc2)CCCN(CCCc2ccccc2)C1` (stereo not shown), the “hERG current change (%, negative = inhibition) at 10uM” value is given as -70.9%.
As for `CCc1cc(C(=O)N2CCCC(CNS(=O)(=O)c3cccs3)C2)n(C)n1` (stereo not shown), the “hERG current change (%, negative = inhibition) at 10uM” value was 22.7%.
Turning to `CCn1c(CC(=O)Nc2ccc(F)cc2)nnc1SCC(=O)NC1CCCC1`, the “hERG current change (%, negative = inhibition) at 10uM” value is recorded as -0.544%.
Under `CCOC(=O)Cn1c(N2CCOCC2)nc2c1c(=O)[nH]c(=O)n2C` stands 9.66%.
Turning to `Cc1ccc(Cl)cc1NC(=O)C1CCCCC1C(=O)O` (stereo not shown), the “hERG current change (%, negative = inhibition) at 10uM” value is listed as -8%.
For `S=C(NC1CC2CCC1C2)N1CCN(c2cccc(Cl)c2)CC1` (stereo not shown), the “hERG current change (%, negative = inhibition) at 10uM” value came out at 11.3%.
In the case of `O=C1c2ccccc2C(=O)N1c1nc(-c2cccs2)cs1`, the “hERG current change (%, negative = inhibition) at 10uM” value is -2.75%.
Consider `CCOc1ccc(-n2c(SCC(=O)Nc3ccc(C(=O)O)cc3)nc3ccccc3c2=O)cc1`, for which the “hERG current change (%, negative = inhibition) at 10uM” value is recorded as 12.6%.
For the compound `CCOC(=O)C1(Cc2cccc(OC)c2)CCCN(S(=O)(=O)CC)C1` (stereo not shown), the “hERG current change (%, negative = inhibition) at 10uM” value is -0.0135%.
For `Cc1cccc(C(=O)NNC(=O)/C=C/C(=O)O)c1`, the “hERG current change (%, negative = inhibition) at 10uM” value is given as 22.7%.
In the case of `C=CCNC(=O)c1onc(CSc2ccc(OC)cc2)c1C(=O)O`, the “hERG current change (%, negative = inhibition) at 10uM” value stood at 11.4%.
Regarding `S=c1[nH]nc(C2(c3ccccc3)CCCC2)o1`, the “hERG current change (%, negative = inhibition) at 10uM” value is recorded as -33.1%.
Under `CC(=O)N/N=C/c1ccc(OCCOc2ccc(Br)cc2)cc1` stands -3.01%.
As to `Cn1ncc2c(Nc3ccc(Br)cc3)nc(Nc3ccc(Br)cc3)nc21`, the “hERG current change (%, negative = inhibition) at 10uM” value is listed as 13.7%.
Under `CCOC(=O)C1=C(C)Nc2nc(SC)nn2C1c1ccc(C(=O)OC)cc1` (stereo not shown) stands 5.26%.
As to `CCOC(=O)c1ccc(/C=N/O)[n+](Cc2ccccc2)c1.[Br-]`, the “hERG current change (%, negative = inhibition) at 10uM” value was 10.6%.
For `Cc1noc(NS(=O)(=O)c2ccc(NC(=O)c3nn(-c4ccc(F)cc4)ccc3=O)cc2)c1C`, the “hERG current change (%, negative = inhibition) at 10uM” value is reported as -8.79%.
Turning to `O=C(NNC(=S)NC(=O)c1cccnc1)c1ccc(Cl)cc1`, the “hERG current change (%, negative = inhibition) at 10uM” value was determined as 18.8%.
Under `Cc1cc2n(n1)SC(Nc1ccc(F)cc1)N2` (stereo not shown) stands -10.6%; under `CC[C@H](C)/C=C(C)/C=C/C1=CC2=CC(=O)[C@]3(C)OC(=O)[C@@H](C(C)=O)[C@@H]3C2=CO1`, 4.65%.
For the compound `Cc1csc(SCC(=O)NC(=O)NC2CCCC2)n1`, the “hERG current change (%, negative = inhibition) at 10uM” value is 25.2%.
For `O=C(/C=C/c1ccc(Cl)cc1Cl)N(Cc1ccc(Cl)cc1)C1CCS(=O)(=O)C1` (stereo not shown), the “hERG current change (%, negative = inhibition) at 10uM” value is listed as 11.1%.
For `COc1cc(NC(=O)C(=O)NCCN(C)C)c(OC)cc1Cl` the value was 8.41%.
Consider `O=C1C2CCCN2C(c2ccccc2F)N1c1cccc(Cl)c1` (stereo not shown), for which the “hERG current change (%, negative = inhibition) at 10uM” value worked out at 3.69%.
Consider `CCN(CC)CCN1C(=O)C(=O)/C(=C(/O)c2ccc(F)cc2)C1c1ccncc1` (stereo not shown), for which the “hERG current change (%, negative = inhibition) at 10uM” value is 2.58%.
As to `O=C(NCCCCNC(=O)c1ccc(Cl)s1)c1ccc(Cl)s1`, the “hERG current change (%, negative = inhibition) at 10uM” value was determined as 12.9%.
As for `O=C(c1ccc(Cl)cc1)N1N=CCC1(O)c1ccc(Cl)cc1` (stereo not shown), the “hERG current change (%, negative = inhibition) at 10uM” value is 15.7%.
With `COc1ccc(N2CCN(C(=O)CCCOc3cc(=O)n(C)c4ccccc34)CC2)cc1`, the “hERG current change (%, negative = inhibition) at 10uM” value was -21.3%.
For `Cc1ccccc1CCNC(=O)c1cc(C2CC2)nc2c1cnn2C(C)C` the value was -15.8%; for `S=C(Nc1ccc(Oc2ccccc2)cc1)N1CCOCC1`, -38%; for `O=C1CCC(=O)N1c1nc2nc(-c3ccccc3)cc(-c3ccccc3)n2n1`, -40.6%.
In the case of `O=C(CCSc1ccccc1)N1CCN(c2ccccc2F)CC1`, the “hERG current change (%, negative = inhibition) at 10uM” value is given as -16.6%.
Under `CCN1C(=O)CSC1=Nc1ccc(Cl)c(Cl)c1` stands 3.36%.
As for `CCOC(=O)N1CCN(C(=O)CSc2nc3c([nH]c4ccccc43)c(=O)n2C)CC1`, the “hERG current change (%, negative = inhibition) at 10uM” value is -2.23%.
For `Oc1cccc(/C=N/c2c(-c3ccco3)nc3ccccn23)c1`, the “hERG current change (%, negative = inhibition) at 10uM” value was determined as 6.9%.
In the case of `COC(=O)c1nonc1NCn1nnc2ccccc21`, the “hERG current change (%, negative = inhibition) at 10uM” value came to 1.65%.
For `CC(C)(C)OC(=O)N1Cc2ccccc2C[C@H]1C(=O)NC1CCCC1` the value was 10.4%; for `CCCCc1nnc(NC(=O)c2ccc(S(=O)(=O)N3CCOCC3)cc2)s1`, 2.84%.
Under `CCCNC(=O)Cn1c(=O)oc2cc(S(=O)(=O)N3CC(C)CC(C)C3)ccc21` (stereo not shown) stands -5.73%; under `Cc1ccc(NC(=O)c2cc(N3C(=O)C4CC=CCC4C3=O)ccc2N2CCCCC2)cc1` (stereo not shown), 1.46%; under `Cc1ccc(C)c(NC(=S)N(Cc2ccco2)C(C)c2cccs2)c1` (stereo not shown), -1.31%.
For the compound `COc1ccc(CCN2CC(C(=O)NCCN3CCOC3=O)CCC2=O)cc1` (stereo not shown), the “hERG current change (%, negative = inhibition) at 10uM” value is 13.6%.
For `Cc1ccc(SCC(=O)NCCSCc2ccccc2)cc1` the value was -21.8%; for `Cc1ccc(CNC(=O)CCSCc2cccc(F)c2)cc1`, -0.165%.
Turning to `CCCCCNc1nc2ccccc2nc1NS(=O)(=O)c1cccs1`, the “hERG current change (%, negative = inhibition) at 10uM” value is -14.1%.
With `CCC(C)[C@H](NC(=O)N1CCN(c2cccc(C(F)(F)F)c2)CC1)C(=O)OC` (stereo partly shown), the “hERG current change (%, negative = inhibition) at 10uM” value is given as 4.78%.
Turning to `CC(=O)Nc1nc(CC(=O)c2ccccc2)cs1`, the “hERG current change (%, negative = inhibition) at 10uM” value is listed as 8.68%.
With `O=C(Nc1ccccc1C(=O)NCc1ccc(Cl)cc1)c1ccco1`, the “hERG current change (%, negative = inhibition) at 10uM” value is -29.1%.
In the case of `Cc1ccc(CC2C(=O)N(C)C(=O)N(C)C2=O)s1`, the “hERG current change (%, negative = inhibition) at 10uM” value is -6.64%.
On to `COc1ccc(NC(=O)c2ccc(-n3cncn3)c([N+](=O)[O-])c2)cc1OC`, for which the “hERG current change (%, negative = inhibition) at 10uM” value is listed as -2.52%.
As for `O=C(NCc1ccccc1)c1c[nH]c2ccc(F)cc2c1=O`, the “hERG current change (%, negative = inhibition) at 10uM” value was 9.32%.
`C=C(C)Cn1c(Sc2nnc(C)s2)nc2c1c(=O)[nH]c(=O)n2C`: the “hERG current change (%, negative = inhibition) at 10uM” value stood at 12.9%.
In the case of `O=C1CSC(c2ccc([N+](=O)[O-])cc2)N1c1ccccc1F` (stereo not shown), the “hERG current change (%, negative = inhibition) at 10uM” value is 0.496%.
Regarding `COc1cccc(CN2CCCN(S(=O)(=O)c3ccc(Br)cc3)CC2)c1`, the “hERG current change (%, negative = inhibition) at 10uM” value is given as -58.6%.
For `Cc1ccc(NC(=O)c2cc([N+](=O)[O-])ccc2Cl)c(O)c1` the value was -4.12%.
Consider `Cc1ccc2c(c1)COc1c3ccc(C(=O)N[C@@H](CO)C(C)C)cc3nn1-2`, for which the “hERG current change (%, negative = inhibition) at 10uM” value was -0.828%.
With `S=C(Nc1ccccc1Cl)N(Cc1ccccc1)Cc1cccnc1`, the “hERG current change (%, negative = inhibition) at 10uM” value is listed as -6.03%.
On to `O=C(c1cc2ncc(Br)cn2n1)N1CCCCC1`, for which the “hERG current change (%, negative = inhibition) at 10uM” value is on record as -3.2%.
On to `C=CCn1c(SCC(=O)N(CCOC)c2c(N)n(CC(C)C)c(=O)[nH]c2=O)nc2ccccc21`, for which the “hERG current change (%, negative = inhibition) at 10uM” value amounted to 7.1%.
As for `Cc1ccc(Sc2ccc(NC(=O)c3ccc(S(C)(=O)=O)cc3Cl)cc2)cc1`, the “hERG current change (%, negative = inhibition) at 10uM” value came out at 2.09%.
Take `O=C(NCCCCO)c1ccc2c3c(cccc13)CC2`: the “hERG current change (%, negative = inhibition) at 10uM” value is given as 7.52%.
Under `Cn1c(=O)c2[nH]c(SCC(=O)c3ccc(F)cc3)nc2n(C)c1=O` stands 13.5%.
Under `COC(=O)C1=C(c2ccc(C(C)=O)cc2)C[C@@H]2CC[C@H]1N2C(=O)N1CCCCC1` stands -16.9%; under `Cc1ccc(NC(=O)c2c(C)nn(-c3ccccc3)c2Cl)c(C)c1`, 19.6%.
Turning to `O=C(Nc1nc2ccccc2s1)c1cc(-c2ccccc2)nn1-c1ccccc1`, the “hERG current change (%, negative = inhibition) at 10uM” value was 7.89%.
Under `O=C(NCc1ccccc1F)C(=O)NCC1CCCN1S(=O)(=O)c1cccs1` (stereo not shown) stands -8.75%; under `CCOC(=O)c1c(C)c(C(=O)NCc2ccc3c(c2)OCO3)c(C)n1CC`, 7.11%; under `CCOC(=O)CNC(=O)c1c(C)nn(-c2ccccc2)c1Cl`, 7.02%.
